For 93 compounds, survival results are on record in PubChem BioAssay AID463173 (ICCB-Longwood Screening Facility, Harvard Medical School, 2010).

The whole screen tested about 52,000 compounds, of which about 4,300 (8.3%) were called active. Rule as the data show it: active = survival mostly below about 52% (no sharp cut-off); inactive = mostly above about 56%. Some of the results follow.

In this assay the test system is DeltatarO mutant. Briefly: S. aureus survival, RN4220 and DeltatarO strains – OD600, teichoic acid synthesis inhibitors, primary screen (AID 463173). As to conditions: S. aureus RN4220 wild type/DeltatarO growth, OD600, 18 h, stronger effect = lower value, screened at 18.75 µg/mL (by protocol).
Take `COc1ccc(C)cc1NC(=O)c1nnn(CC(=O)Nc2c(C)cccc2C)c1N`: the survival is inactive: 93%.
For the compound `CC1=C(C(=O)N(C)C)C(c2ccccc2Cl)NC(=O)N1` (stereo not drawn), the survival was inactive: 76%.
With `Cc1ccc(C)c(S(=O)(=O)c2nnn3c2nc(NC2CCCC2)c2sccc23)c1`, the survival is inactive: 66%.
For `O=C(c1ccc(Br)cc1)N(Cc1ccco1)c1ccccn1`, the survival was inactive: 58%.
As for `CN1C(=O)Cc2cc(S(=O)(=O)NCc3ccccc3Cl)ccc21`, the survival is inactive: 90%.
In the case of `CCc1ccc(NC(=O)Cn2c(=O)n(-c3cccc(OC)c3)c(=O)c3c(C)c(C(=O)N(C)C)sc32)cc1` it was inactive: 69%; in that of `CCCc1ccc(OCc2ccc(C(=O)Nc3ccccc3C(=O)OC)o2)cc1`, active: -2%; in that of `CCc1ccc(CNC(=O)c2cccc(-n3c(C)nc4cccnc43)c2)cc1`, inactive: 91%.
The figure for `Cc1ccc2oc(C(=O)N3CCC(c4nc5ccccc5s4)CC3)c(C)c2c1` is inactive: 52%.
For the compound `COc1ccc(N(CC(=O)N2CCCCC2)S(=O)(=O)c2ccc(OC)c(OC)c2)cc1`, the survival is inactive: 73%.
Consider `CCc1cccc(NC(=O)C2CCCN2S(=O)(=O)c2ccc3nc(-c4ccccc4)[nH]c3c2)c1` (stereo not drawn), for which the survival was active: 35%.
In the case of `Cc1ccc(Cn2c(=O)n(Cc3ccc(C(=O)NC4CCN(Cc5ccccc5)CC4)cc3)c(=O)c3ccccc32)cc1` it was inactive: 85%.
The figure for `CCN(CC)CCN1C(=O)c2ccccc2NC1c1ccccc1F` (stereo not drawn) is inactive: 106%; for `CC(=O)c1ccc(NC(=O)CCn2cccn2)cc1` it is inactive: 75%.
`N#Cc1ccc(OCc2nnc(SCC(=O)c3ccccc3)n2-c2ccccc2)cc1`: the survival is inactive: 87%.
With `COC(=O)c1cc(-c2ccc(C)cc2)no1`, the survival is inactive: 97%.
For `Cc1ccc(-n2c(C)cc(C=C3C(=O)NC(=O)NC3=O)c2C)cc1`, the survival was inactive: 86%.
The figure for `CC(C)Cn1c(-c2ccccc2Cl)nc2ccccc21` is active: -2%; for `CC(=O)Nc1ccc(N2CCN(Cc3ccccc3)CC2)cc1` it is inactive: 86%.
For `O=C(NCCc1ccc(Cl)cc1)c1nnc(Cc2ccc(Cl)cc2Cl)o1`, the survival is inactive: 96%.
Take `O=C(CSc1nnc(NC(=O)C2CC2)s1)Nc1ccccc1F`: the survival was inactive: 105%.
In the case of `CCOc1ccc(-c2c(C)nn3c(C)c(C(=O)NCCN(C)C)cnc23)cc1OCC` it was inactive: 66%; in that of `N/C(=N\OC(=O)Cc1ccccc1)c1ccncc1`, inactive: 89%; in that of `CCC(C)NC(=O)c1cnn2c(C)cc(C)nc12` (stereo not drawn), inactive: 86%.
The figure for `COCCCNC(=O)CCCn1c(=O)c2ccccc2n(CC(=O)Nc2ccc(C)cc2Cl)c1=O` is inactive: 96%; for `Cn1c(=O)c2c(nc(N3CCOCC3)n2Cc2ccccc2Cl)n(C)c1=O` it is active: 46%.
The figure for `COc1ccc(-c2nnn(CC(=O)Nc3sc4c(c3C#N)CCCC4)n2)cc1` is inactive: 98%; for `COc1cc(Nc2nn(-c3ccc(OC(F)(F)F)cc3)nc2C(C)=O)cc(OC)c1` it is inactive: 90%.
For the compound `Cc1nc(S(=O)(=O)N2CCN(c3cccc(Cl)c3)CC2)cn1C`, the survival is inactive: 106%.
The figure for `COc1cc(OC)cc(-c2nnc(SCC(=O)c3ccc([N+](=O)[O-])cc3)o2)c1` is inactive: 73%.
The figure for `O=C(CSc1nncn2c1cc1occc12)Nc1ccc(F)c(Cl)c1` is inactive: 65%.
In the case of `COc1ccc(N(CC(=O)NCCc2ccc(C)cc2)S(=O)(=O)c2c(C)nn(C)c2C)cc1` it was inactive: 71%; in that of `CC(C)Cn1c(CN2CCN(c3cccc(Cl)c3)CC2)nc2c1c(=O)[nH]c(=O)n2C`, inactive: 122%.
With `Oc1ccc(Br)cc1C1CC(c2ccccc2)=NC(c2ccco2)N1` (stereo not drawn), the survival is active: 1%.
Consider `CCOc1ccc(-c2cn3c(n2)sc2cc(C(=O)NCCCN4CCCCC4)ccc23)cc1`, for which the survival is active: -1%.
In the case of `CC1=C(C(=O)Nc2ccccc2)C(C(C)C)n2nc(SCc3ccccc3C)nc2N1` (stereo not drawn), the survival is inactive: 75%.
The figure for `CCC(=O)Nc1cc(-c2cn3cccnc3n2)ccc1OC` is inactive: 87%.
Take `Nc1nc(SCc2ccccc2)ns1`: the survival was inactive: 53%.
The figure for `Cc1ccc(NCc2nnc(SCc3cc(C)ccc3C)o2)c(C)c1` is inactive: 91%; for `COc1cc(NC(=O)c2ccc(-c3nc(CSc4ccccc4)c(C)o3)cc2)cc(OC)c1` it is inactive: 115%.
In the case of `CCOC(=O)c1cc(-c2ccc(OC)cc2)n(CCC(=O)Nc2cccc(C)c2C)c1C` it was inactive: 93%.
As to `CCCCc1nn2c(=O)cc(COC(=O)c3ccc4c(c3)OCO4)nc2s1`, the survival was inactive: 81%.
Turning to `COc1cc(OC)cc(-n2c(=O)c3ccccc3n(Cc3ccccc3C#N)c2=O)c1`, the survival was inactive: 128%.
In the case of `CCOC(=O)c1ccc2c(c1)N(CC#N)C(=O)C(C)(C)O2` it was inactive: 94%; in that of `COc1ccccc1C(=O)NCC(c1ccc(N(C)C)cc1)N1CCc2ccccc21` (stereo not drawn), active: 46%.
The figure for `O=C(CCCn1c(=O)[nH]c2ccc(Br)cc2c1=O)N1CCN(c2cccc(Cl)c2)CC1` is active: 48%.
Turning to `Cc1cc(NC(=O)c2ccco2)cc(-c2nc3ccccc3o2)c1O`, the survival is inactive: 66%.
With `CCCNC(=O)Cn1nc(-c2ccc(C)cc2)c2cnc3ccc(CC)cc3c21`, the survival was active: 37%.
The figure for `CCn1c(C)c(C)c2cc(C(=O)N3CCN(c4ccccc4)CC3)ccc21` is inactive: 94%.
The figure for `Cc1ccc(S(=O)(=O)n2c(CN3CCCC(C)C3)nc3ccccc32)cc1` (stereo not drawn) is inactive: 99%.
Take `CCN(C(=O)CCS(=O)(=O)c1cc2c(cc1C)NC(=O)CO2)c1cccc(C)c1`: the survival is inactive: 84%.
In the case of `CN(C)CCN(Cc1ccccc1)S(=O)(=O)c1csc(C(N)=O)c1` it was inactive: 74%.
In the case of `O=C(Cn1ncn2cccc2c1=O)NCc1cccc(Br)c1` it was inactive: 98%; in that of `CCOC(=O)C(C)(C)Sc1nnc(COc2ccccc2)n1CC`, inactive: 99%; in that of `COc1ccc(N(CC(C)C)S(=O)(=O)c2nnc(NC(=O)c3ccco3)s2)cc1`, active: 41%.
In the case of `Cc1c(Cl)cccc1NC(=O)Cn1c(=O)cc(C)c2c(C)nn(-c3cccc(F)c3)c21` it was inactive: 78%; in that of `COc1ccc(NC(=O)c2cc(-c3ccc(F)cc3)no2)cc1OC`, inactive: 71%.
For `CCCc1nc(SCC(=O)N(CC)CC)c2ccccc2n1`, the survival was inactive: 76%.
The figure for `COc1ccccc1Cc1nc2ccccc2nc1SCC(=O)Nc1c(C)cccc1C` is inactive: 87%.
In the case of `COC(=O)c1ccc(C(=O)OC)c(NC(C)=O)c1` it was inactive: 73%; in that of `COc1ccccc1NC(=O)CSC1=Nc2ccccc2C2=NC(CC(=O)NCc3ccc4c(c3)OCO4)C(=O)N12` (stereo not drawn), inactive: 98%.
The figure for `CCOC(=O)c1noc2ncnc(NCc3ccccc3OC)c12` is inactive: 83%; for `COc1ccccc1N=C1SC(C(=O)Nc2ccccc2OC)CC(=O)N1C` (stereo not drawn) it is inactive: 51%; for `O=C(NCCOCCn1c(=O)oc2ccccc21)Nc1cccc(Cl)c1` it is inactive: 75%.
With `COC(=O)c1ccccc1NC(=O)C1CCCN(c2ncnc3onc(C)c23)C1` (stereo not drawn), the survival was inactive: 80%.
The figure for `Cc1ccc(CNC(=O)c2sc3nc4n(c(=O)c3c2C)CCCCC4)cc1` is active: 53%.
As for `Cc1cccc(NC(=O)c2ccc(CNS(=O)(=O)c3ccc4c(c3)C(C)(C)C(=O)N4C)cc2)c1`, the survival is inactive: 75%.
The figure for `Cc1ccccc1C(=O)N(Cc1ccc(N(C)C)cc1)CC1CCCO1` (stereo not drawn) is inactive: 58%.
In the case of `Cc1ccc(-n2c(=O)c3c(c4cc(C)ccc4n3C)n(Cc3ccc(F)cc3)c2=O)cc1` it was inactive: 116%.
As for `CCOC(=O)C1=NN(C(=O)COc2ccccc2)C(O)(c2ccc(Br)cc2)C1` (stereo not drawn), the survival is inactive: 73%.
The figure for `Cc1ccc(NC(=O)C(Cc2ccccc2)N2Cc3ccccc3C2=O)cc1Cl` (stereo not drawn) is inactive: 77%; for `CNC(=O)c1c(-c2ccccc2)oc2ccc(OC)cc12` it is inactive: 90%; for `CC(C)c1ccc(NC(=O)c2ccc3c(O)c(S(=O)(=O)c4ccccc4)c(=O)[nH]c3c2)cc1` it is inactive: 72%.
In the case of `COc1cc(OC)c(N(C)C(=O)c2cc3c(=O)oc4ccccc4c3s2)cc1Cl` it was inactive: 59%; in that of `O=c1c2ccccc2n2c(-c3ccccc3F)nnc2n1CCc1ccccc1`, inactive: 84%.
In the case of `Cc1ccc(C(=O)N(c2ccc(C)cc2)S(=O)(=O)c2ccc(Cl)cc2)cc1` it was inactive: 78%; in that of `Cc1ccc(-n2nc(C(=O)N(C)Cc3ccccc3)c3c4ccccc4n(C)c3c2=O)cc1`, inactive: 108%; in that of `NC(=O)C1CCN(C(=O)COc2ccc(Cl)cc2Cl)CC1`, inactive: 80%.
As for `O=C(CC1N=C2c3ccccc3N=C(SCc3cccc(Cl)c3)N2C1=O)NCCc1ccccc1` (stereo not drawn), the survival is inactive: 104%.
The figure for `CCC1=C(c2ccc(C)cc2)S(=O)(=O)N=C1N1CCC(C(=O)NCCc2ccc(Cl)cc2)CC1` is inactive: 86%.
In the case of `Cc1ccc(S(=O)(=O)C(CNC(=O)C(=O)NCCc2ccc(Cl)cc2)c2cccs2)cc1` (stereo not drawn) it was inactive: 81%.
The figure for `CCCCNC(=O)CCn1c(=O)c2cccn2c2cccnc21` is inactive: 103%; for `COC(=O)c1cn(CC(=O)Nc2ccc(OC)cc2)c2ccccc12` it is inactive: 91%; for `CCN(C(=O)c1c(C)oc2ncn(CC(C)C)c(=O)c12)c1cccc(Cl)c1` it is inactive: 88%.
For `COc1ccc(C)cc1NC(=O)c1cc(S(=O)(=O)N2CCc3ccccc3C2)ccc1F`, the survival is inactive: 64%.
The figure for `Cc1oc(-c2ccc(C(=O)NCc3ccccc3Cl)cc2)nc1CN1CCc2ccccc21` is inactive: 70%; for `CCCn1c(CCC(=O)Nc2ccc(C)c(Cl)c2)nc2cccnc21` it is inactive: 71%; for `O=C(Oc1ccc(Cl)cc1)c1ccc2snnc2c1` it is inactive: 99%.
In the case of `O=C(O)c1cnc2ccccn2c1=O` it was inactive: 93%.
The figure for `Cc1ccc(C)c(Nc2nn3c(=O)c4cc5c(cc4nc3s2)OCO5)c1` is active: 37%.
For the compound `CCc1ccc(NC(=O)CSc2nc(=O)n(Cc3ccncc3)c3c2CCC3)cc1`, the survival was inactive: 85%.
In the case of `CCN1CCN(CCCNC(=O)Cn2c(-c3cccs3)cc3cc(F)ccc32)CC1` it was inactive: 113%.
In the case of `O=C(COCc1cc(-c2ccc3c(c2)OCO3)on1)Nc1cc(C(F)(F)F)ccc1Cl` it was inactive: 124%.
